{
  "source": "paper PMC4336329",
  "about": "(PLoS ONE, 2015)",
  "note": "About 14,000 (4.5%) of roughly 310,000 compounds showed an effect of 50% or more. Effects have a minus sign here. This is one part of the list.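 Note: peak tail current of the secondary pulse compared with the same well before compound.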",
  "data": [
    {"target": "human ether-à-go-go-related gene (hERG) potassium channel (human, UniProt Q12809)", "sequence (Q12809 whole entry, looked up)": "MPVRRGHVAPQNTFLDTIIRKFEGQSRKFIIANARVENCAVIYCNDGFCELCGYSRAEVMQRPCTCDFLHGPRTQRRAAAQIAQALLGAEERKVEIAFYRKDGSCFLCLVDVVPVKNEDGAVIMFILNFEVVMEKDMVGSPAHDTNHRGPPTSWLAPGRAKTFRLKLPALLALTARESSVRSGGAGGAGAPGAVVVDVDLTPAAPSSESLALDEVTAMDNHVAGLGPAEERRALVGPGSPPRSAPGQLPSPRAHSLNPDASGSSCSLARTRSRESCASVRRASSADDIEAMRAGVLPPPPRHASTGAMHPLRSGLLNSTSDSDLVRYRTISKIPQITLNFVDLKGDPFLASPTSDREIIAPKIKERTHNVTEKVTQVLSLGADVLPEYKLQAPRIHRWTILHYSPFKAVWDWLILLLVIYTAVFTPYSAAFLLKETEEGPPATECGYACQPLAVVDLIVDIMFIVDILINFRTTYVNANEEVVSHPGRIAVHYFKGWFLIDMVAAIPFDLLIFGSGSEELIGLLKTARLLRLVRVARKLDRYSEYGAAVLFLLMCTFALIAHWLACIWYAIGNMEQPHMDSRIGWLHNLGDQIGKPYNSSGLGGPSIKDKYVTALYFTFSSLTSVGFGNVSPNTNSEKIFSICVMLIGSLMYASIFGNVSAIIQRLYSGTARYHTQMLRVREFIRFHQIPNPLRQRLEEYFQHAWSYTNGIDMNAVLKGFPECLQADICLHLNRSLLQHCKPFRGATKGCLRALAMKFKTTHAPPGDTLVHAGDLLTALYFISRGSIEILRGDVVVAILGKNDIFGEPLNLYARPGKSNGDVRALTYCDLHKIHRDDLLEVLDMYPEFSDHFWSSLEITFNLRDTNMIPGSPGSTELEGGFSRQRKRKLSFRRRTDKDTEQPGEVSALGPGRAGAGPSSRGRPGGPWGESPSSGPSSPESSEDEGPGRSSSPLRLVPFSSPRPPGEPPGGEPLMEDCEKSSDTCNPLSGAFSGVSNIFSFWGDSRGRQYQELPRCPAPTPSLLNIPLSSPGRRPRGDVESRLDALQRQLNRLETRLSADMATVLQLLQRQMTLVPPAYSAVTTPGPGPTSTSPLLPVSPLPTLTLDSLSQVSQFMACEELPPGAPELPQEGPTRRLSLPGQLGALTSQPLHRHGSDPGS", "assay": "primary screen, population patch clamp on CHO cells stably expressing hERG", "units": {"hERG current change (%, negative = inhibition) at 10uM": "%"}, "values": [
      {"smiles": "O=C(C[n+]1ccccc1)Nc1nc2ccccc2s1.[Cl-]", "hERG current change (%, negative = inhibition) at 10uM": 0.223},
      {"smiles": "CCC(C)C(NC(=O)c1ccccc1NC(=O)c1ccco1)C(=O)O", "note": "(stereo not shown)", "hERG current change (%, negative = inhibition) at 10uM": 0.615},
      {"smiles": "O=C(COC(=O)Cc1ccccc1)Nc1cc(S(=O)(=O)N2CCCCC2)ccc1Cl", "hERG current change (%, negative = inhibition) at 10uM": -81.8},
      {"smiles": "CCN(CC(=O)Nc1ccc2c(c1)OCCO2)C(=O)c1cc(Cl)nc2ccccc12", "hERG current change (%, negative = inhibition) at 10uM": -8.58},
      {"smiles": "c1ccc(-n2nnc3ccccc32)cc1", "hERG current change (%, negative = inhibition) at 10uM": -8.05},
      {"smiles": "CCc1nc2sc3c(c2c(=O)n1N)CCC3", "hERG current change (%, negative = inhibition) at 10uM": 15.7},
      {"smiles": "Cc1ccc(SC(C)C(=O)Nc2ccccc2C(=O)N2CCOCC2)cc1", "note": "(stereo not shown)", "hERG current change (%, negative = inhibition) at 10uM": 3.02},
      {"smiles": "CCCN1Cc2cccc(C(=O)N3CCN(c4ccc(F)cc4)CC3)c2C1=O", "hERG current change (%, negative = inhibition) at 10uM": -23},
      {"smiles": "COc1ccc(CCN(C)C(=S)NC(=O)c2ccc(F)cc2Cl)cc1OC", "hERG current change (%, negative = inhibition) at 10uM": -20.4},
      {"smiles": "CCOc1ccc(C(=O)NCC2CCCO2)cc1OCC", "note": "(stereo not shown)", "hERG current change (%, negative = inhibition) at 10uM": 35.6},
      {"smiles": "O=C(C1Cc2ccccc2CN1C(=O)c1ccccc1)N1CCN(c2ccccc2)CC1", "note": "(stereo not shown)", "hERG current change (%, negative = inhibition) at 10uM": -31.6},
      {"smiles": "Cc1ccc(-c2noc(-c3cc(C(C)(C)C)nn3Cc3ccccc3)n2)cc1", "hERG current change (%, negative = inhibition) at 10uM": 6.65},
      {"smiles": "CCOc1ccc(-n2cccc2C=O)cc1", "hERG current change (%, negative = inhibition) at 10uM": -4.93},
      {"smiles": "CSc1cc(C)n(-c2ccccc2)c(=S)c1C(C)=O", "hERG current change (%, negative = inhibition) at 10uM": 10.7},
      {"smiles": "Cc1ccc(NC(=O)CCOc2ccccc2C)cc1F", "hERG current change (%, negative = inhibition) at 10uM": 14.3},
      {"smiles": "O=C(COC(=O)c1ccc(Br)o1)Nc1ccc(Br)cc1", "hERG current change (%, negative = inhibition) at 10uM": 19},
      {"smiles": "CN1N=C2c3ccccc3CCC2C1c1ccc(F)cc1", "note": "(stereo not shown)", "hERG current change (%, negative = inhibition) at 10uM": 4.84},
      {"smiles": "COc1ccc(CN2CCN(S(=O)(=O)c3ccccc3)CC2)c(OC)c1OC", "hERG current change (%, negative = inhibition) at 10uM": 3.14},
      {"smiles": "COc1ccc(C(=O)c2c(N)sc3c2CCN(C)C3)cc1", "hERG current change (%, negative = inhibition) at 10uM": 9.04},
      {"smiles": "COc1ccc(COC(=O)CCNC(=O)c2ccc(Cl)cc2)cc1", "hERG current change (%, negative = inhibition) at 10uM": -32.5},
      {"smiles": "COc1ccc(/C=C(/C#N)C(=O)Nc2ccc(O)cc2)cc1C(=O)O", "hERG current change (%, negative = inhibition) at 10uM": 5.42},
      {"smiles": "COc1nnc(-c2ccc(C)c(S(=O)(=O)NC(C)C)c2)c2ccccc12", "hERG current change (%, negative = inhibition) at 10uM": -52.8},
      {"smiles": "CCOC(=O)N1CCc2c(sc(NC(=O)CN3CCOCC3)c2C(=O)Nc2ccccc2)C1", "hERG current change (%, negative = inhibition) at 10uM": -68.8},
      {"smiles": "COc1ccc(N(C(=O)C(C)C)S(=O)(=O)c2cccs2)cc1", "hERG current change (%, negative = inhibition) at 10uM": -14.4},
      {"smiles": "CCOC(=O)C1(C)NC(c2cc(OC)c(OC)c(OC)c2)C2C(=O)N(CC)C(=O)C21", "note": "(stereo not shown)", "hERG current change (%, negative = inhibition) at 10uM": 10.1},
      {"smiles": "Cn1c(=O)c2nc(-c3ccccc3)c(-c3ccccc3)nc2n(C)c1=O", "hERG current change (%, negative = inhibition) at 10uM": -36.8},
      {"smiles": "O=C(NC(=S)NCc1ccco1)c1ccccc1[N+](=O)[O-]", "hERG current change (%, negative = inhibition) at 10uM": 4.3},
      {"smiles": "Cn1c2c(c3ccccc31)CCSC2=O", "hERG current change (%, negative = inhibition) at 10uM": -9.31},
      {"smiles": "Cc1oc(C(C)(C)C)cc1C(=O)NCc1ccc2c(c1)OCO2", "hERG current change (%, negative = inhibition) at 10uM": 13.9},
      {"smiles": "Cc1ccccc1C(=O)NC1CCCN(Cc2ccccc2F)C1", "note": "(stereo not shown)", "hERG current change (%, negative = inhibition) at 10uM": -6.98},
      {"smiles": "Cc1csc(CNC(=O)c2cc(COc3c(C)cccc3C)on2)n1", "hERG current change (%, negative = inhibition) at 10uM": 11.7},
      {"smiles": "COc1ccccc1NC(=O)Nc1ccnn1C1CCN(C(=O)c2ccccn2)CC1", "hERG current change (%, negative = inhibition) at 10uM": 18.7},
      {"smiles": "OCCNc1cnc2ccccc2n1", "hERG current change (%, negative = inhibition) at 10uM": 11.3},
      {"smiles": "C=CCNc1oc(Cc2cccc3ccccc23)nc1C#N", "hERG current change (%, negative = inhibition) at 10uM": -14.7},
      {"smiles": "S=C(NCC1CCCO1)c1ccc(Br)cc1", "note": "(stereo not shown)", "hERG current change (%, negative = inhibition) at 10uM": 9.54},
      {"smiles": "CC(=O)c1ccc(N2CCN(S(=O)(=O)c3c(C)[nH]c(=O)[nH]c3=O)CC2)cc1", "hERG current change (%, negative = inhibition) at 10uM": 24.3},
      {"smiles": "CCCOc1ccc(C2=CSC3=NCCN23)cc1Cl", "hERG current change (%, negative = inhibition) at 10uM": -67.8},
      {"smiles": "Cc1ccc(-c2[nH]nc3c2C(C)C(C#N)=C(N)O3)cc1", "note": "(stereo not shown)", "hERG current change (%, negative = inhibition) at 10uM": 13.5},
      {"smiles": "COc1ccc(Cl)cc1/C=C(\\C#N)C(N)=O", "hERG current change (%, negative = inhibition) at 10uM": 15.3},
      {"smiles": "Cc1ccc(S(=O)(=O)N2CCOCC2)cc1NC(=O)COc1ccc(C(=O)c2ccccc2)cc1", "hERG current change (%, negative = inhibition) at 10uM": -41.8},
      {"smiles": "Cc1c(NC(=O)c2ccccc2F)c(=O)n(-c2ccccc2)n1C", "hERG current change (%, negative = inhibition) at 10uM": 11.8},
      {"smiles": "COc1cccc(CC(=O)NN2C(=O)NC3(CCCCC3)C2=O)c1", "hERG current change (%, negative = inhibition) at 10uM": 11.8},
      {"smiles": "O=C(c1ccco1)N1N=C(c2cccs2)CC1c1ccc(F)cc1", "note": "(stereo not shown)", "hERG current change (%, negative = inhibition) at 10uM": -29},
      {"smiles": "O=C(/C=C/c1ccccc1)NC1CC2CCC1C2", "note": "(stereo not shown)", "hERG current change (%, negative = inhibition) at 10uM": 5.72},
      {"smiles": "Cc1ccccc1NS(=O)(=O)c1ccc(NC(=O)c2nc3ncccn3n2)cc1", "hERG current change (%, negative = inhibition) at 10uM": -2.17},
      {"smiles": "COc1cccc(N2C(=O)C3CCCN3C2c2ccc(F)cc2)c1", "note": "(stereo not shown)", "hERG current change (%, negative = inhibition) at 10uM": 6.88},
      {"smiles": "Cc1ccc(NS(=O)(=O)c2cccc(C(=O)N/N=C/c3c(C)nn(-c4ccccc4)c3N3CCCC3)c2)c(C)c1", "hERG current change (%, negative = inhibition) at 10uM": 2.92},
      {"smiles": "CCn1c(O)c(C=C2N=c3ccccc3=N2)sc1=S", "hERG current change (%, negative = inhibition) at 10uM": 19.9},
      {"smiles": "Cc1ccccc1NC(=O)COC(=O)CCc1c[nH]c2ccccc12", "hERG current change (%, negative = inhibition) at 10uM": -0.38},
      {"smiles": "O=[N+]([O-])c1ccc2nc(C(O)C(O)c3nc4ccc([N+](=O)[O-])cc4[nH]3)[nH]c2c1", "note": "(stereo not shown)", "hERG current change (%, negative = inhibition) at 10uM": 4.69},
      {"smiles": "Nc1nnc(CC(=O)N/N=C/c2cccc(OCCOc3ccccc3)c2)s1", "hERG current change (%, negative = inhibition) at 10uM": 0.771},
      {"smiles": "CC(=O)C1=C(O)C(=O)N(C)C1c1ccccc1F", "note": "(stereo not shown)", "hERG current change (%, negative = inhibition) at 10uM": 16.3},
      {"smiles": "CC(=O)NC1(C(F)(F)F)C(=O)NC(C)=C1C#N", "note": "(stereo not shown)", "hERG current change (%, negative = inhibition) at 10uM": -6.65},
      {"smiles": "CCOC(=O)Cc1nnc(NC(=O)CSc2nnc3c4ccccc4n(C(C)C)c3n2)s1", "hERG current change (%, negative = inhibition) at 10uM": -35.8},
      {"smiles": "CCNC(=O)N1c2ccc(OCC)cc2C(C)=CC1(C)C", "hERG current change (%, negative = inhibition) at 10uM": -2.36},
      {"smiles": "CCN(C(=O)c1ccc(Cl)cc1[N+](=O)[O-])c1ccccc1C", "hERG current change (%, negative = inhibition) at 10uM": -0.0432},
      {"smiles": "Cc1ccc(C)c(OCC(=O)Nc2ccc(N3CCOCC3)cc2)c1", "hERG current change (%, negative = inhibition) at 10uM": 0.741},
      {"smiles": "COCCN1C(=O)N[C@@H](c2cccc(C(F)(F)F)c2)[C@@H](C(=O)OC)[C@H]1C", "hERG current change (%, negative = inhibition) at 10uM": 9.16}
    ]}
  ]
}
